# Experimental data: PubChem BioAssay AID504333 (National Center for Advancing Translational Sciences (NCATS), 2011)
# Values joined by “and” are separate entries in the source; they are usually repeats but may differ in a detail not shown here. Equal values may be shown once. The whole screen tested about 360,000 compounds, of which about 16,000 (4.4%) were called active. Inconclusive results, whose numbers are uncertain, are shown with a selection of clear calls. The call rests on the fitted dose curve; in most records, active means well fitted inhibition curve with a large enough effect; inconclusive means small, poorly fitted or top-dose-only effect; inactive means no such curve, though single readings can be large or run the other way. A potency beside an inconclusive call is a rough fit, not a confirmed value.
# Molecular target: Bromodomain adjacent to zinc finger domain protein 2B (Homo sapiens) (UniProt Q9UIF8)
# Chain of UniProt Q9UIF8 (Q9UIF8 whole entry, looked up, the tested form may be a part): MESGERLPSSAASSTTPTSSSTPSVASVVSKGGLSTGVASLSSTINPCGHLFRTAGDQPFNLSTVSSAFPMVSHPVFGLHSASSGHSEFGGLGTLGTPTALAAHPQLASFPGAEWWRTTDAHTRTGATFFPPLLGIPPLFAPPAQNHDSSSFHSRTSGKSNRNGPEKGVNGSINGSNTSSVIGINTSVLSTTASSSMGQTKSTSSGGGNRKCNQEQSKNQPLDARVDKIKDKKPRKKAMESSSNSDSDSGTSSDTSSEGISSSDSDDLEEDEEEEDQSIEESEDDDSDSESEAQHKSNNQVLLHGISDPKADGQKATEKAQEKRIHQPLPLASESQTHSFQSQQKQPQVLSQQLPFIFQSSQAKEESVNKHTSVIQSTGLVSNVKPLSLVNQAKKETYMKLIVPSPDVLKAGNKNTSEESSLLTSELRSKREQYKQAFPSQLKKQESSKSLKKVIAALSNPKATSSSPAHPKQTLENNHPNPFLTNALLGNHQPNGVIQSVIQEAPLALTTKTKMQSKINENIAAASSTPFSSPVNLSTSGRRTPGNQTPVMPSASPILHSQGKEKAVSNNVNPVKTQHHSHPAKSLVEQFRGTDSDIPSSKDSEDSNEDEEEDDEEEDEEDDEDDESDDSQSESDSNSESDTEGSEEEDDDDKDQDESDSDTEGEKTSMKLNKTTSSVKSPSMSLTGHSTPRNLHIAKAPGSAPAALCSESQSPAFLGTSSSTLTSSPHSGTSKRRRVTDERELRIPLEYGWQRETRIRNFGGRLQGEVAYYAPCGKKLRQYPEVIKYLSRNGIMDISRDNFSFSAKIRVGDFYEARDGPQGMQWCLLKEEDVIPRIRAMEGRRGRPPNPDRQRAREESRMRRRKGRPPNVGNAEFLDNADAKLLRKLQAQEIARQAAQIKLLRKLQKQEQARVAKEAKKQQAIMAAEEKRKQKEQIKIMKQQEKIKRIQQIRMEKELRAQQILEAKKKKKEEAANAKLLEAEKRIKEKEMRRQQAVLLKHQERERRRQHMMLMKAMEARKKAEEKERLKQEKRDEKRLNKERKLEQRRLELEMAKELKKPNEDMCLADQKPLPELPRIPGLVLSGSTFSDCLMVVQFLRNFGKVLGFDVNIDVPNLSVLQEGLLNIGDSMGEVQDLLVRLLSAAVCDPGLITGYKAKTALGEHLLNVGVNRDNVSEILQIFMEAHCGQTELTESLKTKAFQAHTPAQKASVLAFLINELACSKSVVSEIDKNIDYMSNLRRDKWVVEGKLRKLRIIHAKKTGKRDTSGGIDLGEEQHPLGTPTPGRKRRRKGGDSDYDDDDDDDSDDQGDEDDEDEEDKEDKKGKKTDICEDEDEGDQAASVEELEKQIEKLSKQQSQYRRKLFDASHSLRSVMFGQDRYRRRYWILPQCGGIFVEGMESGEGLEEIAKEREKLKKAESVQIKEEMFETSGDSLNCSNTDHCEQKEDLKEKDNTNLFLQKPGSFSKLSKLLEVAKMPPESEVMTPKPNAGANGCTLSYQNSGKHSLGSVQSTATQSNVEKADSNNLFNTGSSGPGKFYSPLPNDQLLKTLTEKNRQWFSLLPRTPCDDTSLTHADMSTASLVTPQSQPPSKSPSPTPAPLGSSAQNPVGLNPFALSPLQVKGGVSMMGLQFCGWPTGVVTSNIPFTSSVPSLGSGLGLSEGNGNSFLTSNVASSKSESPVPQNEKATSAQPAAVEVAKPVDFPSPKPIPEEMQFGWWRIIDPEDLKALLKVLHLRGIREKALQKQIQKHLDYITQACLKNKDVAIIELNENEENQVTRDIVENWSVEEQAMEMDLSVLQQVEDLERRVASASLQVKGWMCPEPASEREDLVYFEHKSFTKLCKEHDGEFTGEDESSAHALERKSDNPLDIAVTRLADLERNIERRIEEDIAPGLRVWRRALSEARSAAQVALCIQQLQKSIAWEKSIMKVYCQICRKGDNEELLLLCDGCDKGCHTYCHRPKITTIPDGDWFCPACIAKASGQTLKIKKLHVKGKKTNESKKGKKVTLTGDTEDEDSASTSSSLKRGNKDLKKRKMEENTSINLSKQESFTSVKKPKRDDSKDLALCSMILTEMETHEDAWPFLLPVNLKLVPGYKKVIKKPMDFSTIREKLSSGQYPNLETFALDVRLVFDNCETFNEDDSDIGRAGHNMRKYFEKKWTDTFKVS
# Experiment: qHTS Assay for Inhibitors of BAZ2B; further: nearly all actives have a fitted effect of over 60% in size
# Settings: AlphaScreen BAZ2B-H3K14Ac peptide displacement; series mostly up to 114 µM
# From the text: BAZ2B (bromodomain adjacent to zinc finger domain, 2B) belongs to a family of ubiquitously expressed bromodomain containing proteins, which biological function has not yet been elucidated. […] The interaction of BAZ2B with ISWI mediated by the BAZ1 motif has recently been described. […] The protocol is based on the AlphaScreen (PerkinElmer) displacement assay developed by NCGC [5], but uses the peptide ligand Biot-H3K14Ac, a high affinity binding partner for BAZ2B, in an AlphaScreen format. Although AlphaScreen has significant advantages with its utility in a variety of epigenetic target assays, the primary screening data provided in this deposition should be used with caution due to the prevalence of screening artifacts. The top compound concentration tested was 110uM in this assay, which increases number of actives and potential artifacts. An AlphaScreen counterscreen is highly recommended to be run against any putative actives to eliminate non-specific artifacts. Alternatively, one can use other AlphaScreen assays in PubChem to filter out promiscuous hits. Eberharter, A. et al. ACF1 improves the effectiveness of nucleosome mobilization by ISWI through PHD-histone contacts. The EMBO journal 23, 4029-4039. 2004. PMID: 15457208 [2] Jones, M.H. et al. A novel family of bromodomain genes. Genomics 63, 40-45. 2000. PMID: 10662543 [3] Yasgar, et al. Compound Management for Quantitative High-Throughput Screening. JALA. 2008 Apr;13(2):79-89. PMID: 18496600 [4] Inglese, et al. Quantitative high-throughput screening: a titration-based approach that efficiently identifies biological activities in large chemical libraries. Proc Natl Acad Sci. 1;103(31):11473-8. 2006. PMID: 16864780 [5] Quinn et al. A chemiluminescence-based method for identification of histone lysine methyltransferase inhibitors. Mol Biosyst 6(5): 782-8. 2010. PMID: 20567762 [6] Baell,Holloway. New substructure filters for removal of pan assay interference compounds (PAINS) from screening libraries and for their exclusion in bioassays. J Med Chem. 53(7):2719-40. 2010. PMID: 20131845 NIH Molecular Libraries Probe Production Network [MLPCN] NIH Chemical Genomics Center [NCGC] Structural Genomics Consortium (SGC) NIH Grant: 5U54 MH084681-02
# To each well of a 1,536w plate, 2ul of BAZ2B protein (final 50nM) and 1ul biotinylated histone peptide acetylated at Lys14 [b-H3(5-23)K14Ac] (final 50nM) were added in 1x PBS buffer, pH 7.4, containing 0.01% Tween-20, using a nanoliter dispenser. Formation of a protein-peptide complex proceeded at room temperature for 30 min. A Kalypsys pin-tool was employed to transfer 23 nL of library compound solution in DMSO to each well. Following a 30 min incubation of the protein-peptide complex with compounds at room temperature, a mixture of 40 ug/mL each streptavidin-coated donor and nickel chelate acceptor AlphaScreen beads (final 10 ug/mL) were added in a 1ul dispense for a final volume of 4ul. A brief centrifugation followed (1000rpm, 1 min) and were then incubated protected from the light for 20 min at room temperature. Plates were read on an EnVision multilabel plate reader using the 1,536 plate HTS AlphaScreen aperture (excitation time 80 ms, measurement time 240 ms).
# Potency means the concentration at half of the fitted maximal effect; tags describe the fitted curve by direction and shape.
row,SMILES,Potency
1,CCSC1=N/C(=C\c2ccc(-c3ccccc3[N+](=O)[O-])o2)C(=O)S1,active: 7.94 µM
2,COc1ccc(CNCc2ccco2)cc1OCc1ccccc1,active: 79.4 µM
3,COc1ccccc1C(=O)Nc1cccc2nc(C)ccc12,"inconclusive: 79.4 µM [inhibitor, single point]"
4,Cc1nc(NC(=O)c2ccccc2)sc1-c1csc(Nc2cccc(F)c2)n1,"inconclusive: 44.7 µM [inhibitor, partial curve]"
5,CSc1cc(-c2ccccc2)n(Cc2ccc(Cl)cc2Cl)c(=O)c1C#N,inactive
6,COc1cc(NC(=O)CSc2ncnc3scc(-c4ccccc4)c23)c(C(=O)O)cc1OC,"inconclusive: 79.4 µM [inhibitor, partial curve]"
7,O=c1c2ccccc2n(Cc2ccccc2F)c(=O)n1Cc1ccccc1F,inactive
8,CCOC(=O)c1oc2ccccc2c1CN1CCN(c2ccccc2)CC1,active: 56.2 µM
9,COC(=O)c1c(NC(=O)C2CCCCC2C(=O)O)sc2c1CCCCC2 (stereo unspecified),inactive
10,Cc1ccc(CN(C)CC(=O)Nc2cccc([N+](=O)[O-])c2)o1,"inconclusive: 39.8 µM [inhibitor, partial curve]"
11,Cc1ccc(C)c(Cn2c(=O)n(Cc3ccccc3)c(=O)c3sc4ccccc4c32)c1,inactive
12,Cn1c(=O)c2nc3ccccc3nc2n(C)c1=O,"inconclusive: 89.1 µM [inhibitor, single point]"
13,NS(=O)(=O)c1ccc(CCNC(=O)Cc2c[nH]c3ccccc23)cc1,inactive
14,COc1ccc(N2CCN(CCCNC(=O)C(=O)c3c(C)n(C)c4ccccc34)CC2)cc1,active: 35.5 µM
15,CC(=O)N1CCN(C(=O)CC2OC(=O)c3ccccc32)CC1 (stereo unspecified),"inconclusive: 44.7 µM [inhibitor, partial curve]"
16,CCN(CC)C(=O)CC(c1cc(OC)c(OC)c(OC)c1)c1c(OC)cc(OC)c2c(-c3ccccc3)cc(=O)oc12 (stereo unspecified),active: 50.1 µM
17,O=C(O)c1cccc2c1C(=O)c1cccc3snc-2c13,inactive
18,O=C(COC(=O)c1ccccc1[N+](=O)[O-])c1ccc(C2CCCCC2)cc1,"inconclusive: 39.8 µM [inhibitor, partial curve]"
19,COc1ccc(N2CCN(C(=O)C3CCN(S(=O)(=O)c4c(C)noc4/C=C/N(C)C)CC3)CC2)cc1,"inconclusive: 20 µM [inhibitor, partial curve]"
20,COc1ccccc1N1CCN(C(=O)c2noc(C(C)C)c2[N+](=O)[O-])CC1,"inconclusive: 89.1 µM [inhibitor, single point]"
21,Oc1c(CN2CCCCC2)cc(COCc2ccccc2)c2cccnc12,active: 20 µM and active: 6.31 µM
22,CCOC(=O)C1(Cc2ccc(Cl)cc2)CCN(Cc2nccn2CC)CC1,"inconclusive: 44.7 µM [inhibitor, partial curve]"
23,CC1=C(C(=O)Nc2ccccc2)C(c2ccc(O)cc2)n2nc(-c3ccc(Cl)cc3)nc2N1 (stereo unspecified),"inconclusive: 89.1 µM [inhibitor, single point]"

row,SMILES,Potency
1,CCOc1ccc(NC(c2ccccc2)P(=O)(OC)OC)cc1 (stereo unspecified),"inconclusive: 89.1 µM [inhibitor, single point]"
2,O=C(CNCc1ccco1)Nc1ccc(N2CCCCCC2)cc1,active: 28.2 µM
3,CCC(Nc1ccc(OC)cc1)C(=O)N/N=C/c1ccc([N+](=O)[O-])cc1 (stereo unspecified),active: 44.7 µM
4,Cc1ccccc1NC(=S)NC1CCCC1,inactive
5,O=C(Nc1ccc2ccccc2c1)C(=O)C1C(=O)Nc2ccccc21 (stereo unspecified),inactive
6,O=P(O)(O)CP(=O)(O)O,active: 50.1 µM
7,CCC(C)[C@H](N)c1nnc(SCc2ccc(Cl)c(Cl)c2)o1 (stereo partly specified),"inconclusive: 89.1 µM [inhibitor, single point]"
8,Cc1oc(-c2cccc(Br)c2)nc1Cn1c(SCc2cccc(F)c2)nc2cccnc21,inactive
9,Cc1nn(-c2ccccc2)c2c1C(c1ccc([N+](=O)[O-])cc1)N1C(=N2)C(=O)Nc2ccccc21 (stereo unspecified),"inconclusive: 39.8 µM [inhibitor, partial curve]"
10,CC1=C(C(=O)Nc2ccccc2)C(c2ccc(Cl)cc2)n2c(s/c(=C/c3cccc(OCC(=O)O)c3)c2=O)=N1 (stereo unspecified),active: 56.2 µM
11,COC(=O)C1=C(C)N(C2CCCCC2)C(=O)C1,inactive
12,CN1CCN(CC(=O)Nc2nc3ccccc3s2)CC1,active: 70.8 µM
13,Nc1nonc1C(=O)N/N=C/c1ccc(-c2cccc(C(=O)O)c2)o1,"inconclusive: 50.1 µM [inhibitor, partial curve]"
14,COc1ccc(/C=N/N2CCN(c3ccccc3OC)CC2)cc1Br,active: 39.8 µM
15,CCCN(Cc1ccc(N(C)C)cc1)CC1CC1,"inconclusive: 56.2 µM [inhibitor, partial curve]"
16,CC1=CC(C)(C)n2c(O)c(C3=NC(=S)NC3=O)c3cc(OC(=O)c4cccc5ccccc45)cc1c32,"inconclusive: 79.4 µM [inhibitor, single point]"
17,COc1cccc(-c2csc(N3CCN(Cc4ccccc4)CC3)n2)c1,"inconclusive: 44.7 µM [inhibitor, partial curve]"
18,Nc1cccc(-c2cn(-c3cc4cc(C#CC5(O)CCCCC5)ccc4oc3=O)nn2)c1,"inconclusive: 79.4 µM [inhibitor, single point]"
19,Cc1ccnc(NC(=O)C2CCN(S(=O)(=O)c3c(C)c(C)cc(C)c3C)CC2)c1,"inconclusive: 70.8 µM [inhibitor, single point]"
20,O=C(O)CC/C(=N/NC(=O)c1cn(-c2ccccc2)nc1-c1ccccc1)C(=O)O,"inconclusive: 70.8 µM [inhibitor, single point]"
21,N#Cc1c(-c2ccco2)cc(-c2cccnc2)nc1N,"inconclusive: 89.1 µM [inhibitor, single point]"
22,CC(OC(=O)/C=C/c1ccco1)C(=O)Nc1cccc([N+](=O)[O-])c1 (stereo unspecified),"inconclusive: 44.7 µM [inhibitor, partial curve]"
23,COc1cc2c(cc1OC)CN(C(=O)c1nn(Cc3ccccc3)c(=O)c3ccccc13)CC2,"inconclusive: 79.4 µM [inhibitor, single point]"
